Measurements reported in paper PMC4336329 (PLoS ONE, 2015).
About 14,000 (4.5%) of roughly 310,000 compounds showed an effect of 50% or more. Effects have a minus sign here. This is one part of the list.

What follows are compounds tested against human ether-à-go-go-related gene (hERG) potassium channel (human, UniProt Q12809) (assay: primary screen, population patch clamp on CHO cells stably expressing hERG).
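Further: peak tail current of the secondary pulse compared with the same well before compound.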

Sequence of human ether-à-go-go-related gene (hERG) potassium channel (Q12809 whole entry, looked up): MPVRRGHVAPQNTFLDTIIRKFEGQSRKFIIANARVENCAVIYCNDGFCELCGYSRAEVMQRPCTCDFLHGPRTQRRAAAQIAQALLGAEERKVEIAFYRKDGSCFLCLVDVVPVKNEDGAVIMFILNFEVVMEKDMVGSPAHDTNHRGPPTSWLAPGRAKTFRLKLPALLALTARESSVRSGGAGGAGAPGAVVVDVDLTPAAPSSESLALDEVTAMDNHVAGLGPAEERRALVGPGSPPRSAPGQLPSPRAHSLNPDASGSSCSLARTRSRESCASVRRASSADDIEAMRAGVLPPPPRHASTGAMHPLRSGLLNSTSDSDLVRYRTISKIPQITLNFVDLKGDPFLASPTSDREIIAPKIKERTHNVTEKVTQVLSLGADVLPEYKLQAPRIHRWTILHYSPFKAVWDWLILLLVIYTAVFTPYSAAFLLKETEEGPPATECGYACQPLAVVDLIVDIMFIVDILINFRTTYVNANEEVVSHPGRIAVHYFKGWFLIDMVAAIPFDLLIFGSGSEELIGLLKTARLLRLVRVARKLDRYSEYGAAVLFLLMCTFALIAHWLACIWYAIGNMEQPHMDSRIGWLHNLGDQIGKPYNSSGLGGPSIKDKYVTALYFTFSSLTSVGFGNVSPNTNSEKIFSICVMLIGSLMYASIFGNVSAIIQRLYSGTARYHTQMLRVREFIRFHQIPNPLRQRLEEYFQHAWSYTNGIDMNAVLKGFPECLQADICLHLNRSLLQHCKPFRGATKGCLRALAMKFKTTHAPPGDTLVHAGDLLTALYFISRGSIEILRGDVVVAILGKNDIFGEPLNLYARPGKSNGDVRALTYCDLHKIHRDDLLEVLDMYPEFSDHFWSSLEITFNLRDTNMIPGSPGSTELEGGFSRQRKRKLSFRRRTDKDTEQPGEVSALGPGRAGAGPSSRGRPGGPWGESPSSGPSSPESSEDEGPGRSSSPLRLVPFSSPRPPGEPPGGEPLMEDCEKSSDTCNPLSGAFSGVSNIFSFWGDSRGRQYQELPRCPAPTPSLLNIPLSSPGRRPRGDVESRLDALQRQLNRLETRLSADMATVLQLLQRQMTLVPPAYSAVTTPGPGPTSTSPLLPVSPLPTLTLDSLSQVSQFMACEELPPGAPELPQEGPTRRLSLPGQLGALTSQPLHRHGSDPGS

**Q.** `CCN1CCN(CCCNC(=O)C2CCN(c3nnc(-n4cccc4)s3)CC2)CC1` was tested. Which “hERG current change (%, negative = inhibition) at 10uM” value did it give?
**A.** Its value is -3.56%.

**Q.** `COCc1nnc(NC(=O)CCc2ccc(OC)cc2)s1` was tested. Which “hERG current change (%, negative = inhibition) at 10uM” value did it give?
**A.** Its value is 20.3%.

**Q.** For `O=C(CSc1nc2ccccc2s1)NCCOc1ccc(Cl)cc1`, which “hERG current change (%, negative = inhibition) at 10uM” value is on record?
**A.** The value was -3.32%.

**Q.** How did the “hERG current change (%, negative = inhibition) at 10uM” value turn out when `COc1ccc(CC(=O)Nc2ccc(C)cc2O)cc1S(=O)(=O)N1CCOCC1` was run?
**A.** Its value is 2.52%.

**Q.** Which “hERG current change (%, negative = inhibition) at 10uM” value does the source give for `O=C([O-])c1ncc(Cl)c(Cl)c1Cl.[NH4+]` here?
**A.** Its value is 16.2%.

**Q.** `O=C(COc1ccc2c3c(c(=O)oc2c1)CCC3)NCCCN1CCOCC1` was tested. Which “hERG current change (%, negative = inhibition) at 10uM” value did it give?
**A.** The value was 12.1%.

**Q.** How did the “hERG current change (%, negative = inhibition) at 10uM” value turn out when `COCCn1c(N)c(NCc2ccccc2)c(=O)[nH]c1=O` was run?
**A.** The value was 17%.

**Q.** With `CSCCC(NC(=O)c1ccccc1Cl)C(=O)NCc1ccncc1` (stereo not shown) as the compound, how does the “hERG current change (%, negative = inhibition) at 10uM” value read?
**A.** The value was 10.1%.

**Q.** `COc1ccc(OCCCC(=O)Nc2ccc(OC)c(S(=O)(=O)N3CCOCC3)c2)cc1` was tested. Which “hERG current change (%, negative = inhibition) at 10uM” value did it give?
**A.** The value was -30.5%.

**Q.** How did the “hERG current change (%, negative = inhibition) at 10uM” value turn out when `CCCc1cc(=O)oc2cc(OCC(=O)Nc3ccccn3)ccc12` was run?
**A.** The value was -7.98%.

**Q.** For `O=C(/C=C/c1c(F)cccc1Cl)Nc1nc2ccccc2[nH]1`, which “hERG current change (%, negative = inhibition) at 10uM” value is on record?
**A.** Its value is 10.8%.

**Q.** With `O=C(NCCc1cccc(C(F)(F)F)c1)C1CCC(=O)N(Cc2ccc(Cl)cc2)C1` (stereo not shown) as the compound, how does the “hERG current change (%, negative = inhibition) at 10uM” value read?
**A.** Its value is -59%.

**Q.** With `O=C(NCC1CCCO1)Nc1ccc(Cl)cc1` (stereo not shown) as the compound, how does the “hERG current change (%, negative = inhibition) at 10uM” value read?
**A.** The value was -11.5%.

**Q.** `COc1cc(C(O)P(=O)(OC2CCCCC2)c2ccc(N(C)C)cc2)cc(OC)c1OC` (stereo not shown) was tested. Which “hERG current change (%, negative = inhibition) at 10uM” value did it give?
**A.** Its value is -3.85%.

**Q.** With `O=C(CCCn1c(=O)[nH]c2cc(Cl)ccc2c1=O)NCCCN1CCCC1=O` as the compound, how does the “hERG current change (%, negative = inhibition) at 10uM” value read?
**A.** Its value is 0.943%.

**Q.** For `O=C(OCc1cc2ccccc2[nH]c1=O)c1ccccc1`, which “hERG current change (%, negative = inhibition) at 10uM” value is on record?
**A.** Its value is 6.79%.

**Q.** `CCOc1ccc(CCNC(=O)COC(=O)c2ccco2)cc1OCC` was tested. Which “hERG current change (%, negative = inhibition) at 10uM” value did it give?
**A.** Its value is 2.54%.

**Q.** With `O=C(CNC(=O)c1cccs1)OCC(=O)c1cccs1` as the compound, how does the “hERG current change (%, negative = inhibition) at 10uM” value read?
**A.** Its value is 1.19%.

**Q.** Which “hERG current change (%, negative = inhibition) at 10uM” value does the source give for `CN(Cc1ccccc1)C(=O)Cn1c(=O)oc2cc(S(=O)(=O)NCc3ccccc3)ccc21` here?
**A.** The value was -4.36%.

**Q.** How did the “hERG current change (%, negative = inhibition) at 10uM” value turn out when `CCn1c(=O)cc(OCC(=O)N2CCC3(CC2)OCCO3)c2ccccc21` was run?
**A.** The value was 7.83%.

**Q.** `Cc1cc(C)n(CC(O)COc2ccc(C(C)C)c(C)c2)n1` (stereo not shown) was tested. Which “hERG current change (%, negative = inhibition) at 10uM” value did it give?
**A.** Its value is 11.7%.

**Q.** `CC1Cc2ccccc2N1C(=O)CSc1nnc(-c2ccc(S(=O)(=O)N3CCCC3)cc2)o1` (stereo not shown) was tested. Which “hERG current change (%, negative = inhibition) at 10uM” value did it give?
**A.** Its value is -0.906%.

**Q.** `CC(C)c1ccc(OCC(=O)Nc2ccc(OC(F)(F)F)cc2)cc1` was tested. Which “hERG current change (%, negative = inhibition) at 10uM” value did it give?
**A.** The value was 4.88%.

**Q.** How did the “hERG current change (%, negative = inhibition) at 10uM” value turn out when `Cc1ccc(OCCCc2c(C)n[nH]c2C)cc1` was run?
**A.** Its value is 10.8%.

**Q.** For `COc1cccc2cc(-c3cc(=O)oc4ccc(OCC(C)=O)cc34)oc12`, which “hERG current change (%, negative = inhibition) at 10uM” value is on record?
**A.** The value was 9.86%.
